# Measurements reported in the BET-seq Pho4 binding data (Le et al. 2018).
# This is one part of the list. The energies were worked out here from pooled read counts, against the library average; single values are noisy.
# Target: T1, Pho4 (S. cerevisiae) (UniProt P07270)
# T1 sequence: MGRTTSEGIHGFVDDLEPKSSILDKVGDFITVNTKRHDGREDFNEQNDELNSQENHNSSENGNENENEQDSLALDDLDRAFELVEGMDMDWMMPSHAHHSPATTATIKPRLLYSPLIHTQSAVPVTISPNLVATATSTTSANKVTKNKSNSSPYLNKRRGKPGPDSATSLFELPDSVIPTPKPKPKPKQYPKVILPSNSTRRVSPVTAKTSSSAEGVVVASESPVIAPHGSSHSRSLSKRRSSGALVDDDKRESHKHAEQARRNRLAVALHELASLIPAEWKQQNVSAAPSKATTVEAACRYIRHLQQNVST
# Assay: relative binding free energy (BET-seq); higher = weaker binding
# Conditions: reference: library average
row,Sequence,relative binding free energy [kcal/mol]
1,CACGTCACGTGTTAGG,0.29
2,GGGCTCACGTGATGTA,0.33
3,GTATACACGTGTGTAC,0.16
4,GATAGCACGTGTGTTG,-0.03
5,TATCTCACGTGAGTGT,0.19
6,TTGTTCACGTGGCCGT,0.17
7,TGGTACACGTGGCATG,-0.02
8,TATTCCACGTGGAGTA,0.11
9,TGATTCACGTGTTTTC,0.36
10,AGGGTCACGTGCTTTA,0.15
11,TTATGCACGTGGGTGG,-0.04
12,GGAAGCACGTGGGAAT,-0.07
13,AAGGGCACGTGGGGGA,-0.16
14,AGGCGCACGTGGCAGG,-0.27
15,TGGTTCACGTGCACGT,0.12
16,CTTGGCACGTGGAGGG,-0.25
17,TGGCTCACGTGATGCG,0.2
18,TGTAACACGTGTTTAC,0.04
19,GTGGGCACGTGGGTCA,-0.08
20,TTTGGCACGTGAGTTT,0.22
21,TGGAGCACGTGGTGGA,-0.16
22,GGTTACACGTGTTACG,0.2
23,AGGATCACGTGAGTCG,0.47
24,TTAATCACGTGTGGAT,0.23
25,TTCCTCACGTGATGTT,0.41

row,Sequence,relative binding free energy [kcal/mol]
1,TAGGACACGTGACGGT,0.09
2,TGTCTCACGTGTGTTA,0.25
3,TATTGCACGTGGTAAA,-0.03
4,TTTGCCACGTGTGGTA,0.03
5,TTGTACACGTGAGATG,0.31
6,AGAGGCACGTGGACGG,-0.12
7,TCTATCACGTGATTGG,0.38
8,GTTGTCACGTGTTATA,0.2
9,TTTCGCACGTGGTCAT,-0.08
10,GTGGACACGTGCCTGT,-0.01
11,ATTATCACGTGTGAGA,0.17
12,TTGGCCACGTGTGTCG,-0.07
13,AGGGACACGTGGTGGG,-0.04
14,TTGAGCACGTGGTGCT,-0.19
15,TACGGCACGTGTTATA,-0.09
16,ATCGACACGTGAGTGG,0.14
17,TCTTACACGTGAGTTG,0.42
18,GTGTACACGTGTCTAG,0.19
19,ATCTTCACGTGTGCTT,0.28
20,AGTGACACGTGCTTTG,0.01
21,ATATTCACGTGGTAGG,0.22
22,TACATCACGTGGGTGG,0.06
23,AGTGTCACGTGACTGG,0.11
24,TAGAGCACGTGGGGTG,-0.21
25,GTGGTCACGTGTAAGC,0.18

row,Sequence,relative binding free energy [kcal/mol]
1,CGGGTCACGTGGACTA,0.24
2,TTTGCCACGTGGGGCT,-0.25
3,GGGATCACGTGGGCTG,-0.08
4,AGTTGCACGTGCGTAA,-0.13
5,TCTGGCACGTGTGTCG,-0.04
6,ATCGGCACGTGATTTG,-0.04
7,TGGAGCACGTGTGGTT,-0.02
8,TTAGGCACGTGAGGGA,0.19
9,TGCGTCACGTGTCTGG,0
10,GGGTGCACGTGTGGTC,0.01
11,AGTGCCACGTGTATGT,-0.09
12,TAAATCACGTGTGCGT,-0.02
13,TGCGACACGTGATAGG,0.15
14,ATCTGCACGTGTGGTA,-0.03
15,ATTGGCACGTGGTAAG,-0.19
16,TTGTGCACGTGGACAT,0.1
17,GAGTACACGTGGTTGG,0.11
18,CGCAGCACGTGGGTGA,-0.17
19,TAGGTCACGTGTGCAG,0.12
20,AGGTGCACGTGATGTT,0.11
21,TGCGGCACGTGGGGTG,-0.26
22,AGTACCACGTGGTGAT,-0.12
23,TGGCTCACGTGTCGGT,0.19
24,TTGGTCACGTGGGGCG,0.02
25,TGTTCCACGTGCGTGG,-0.18

row,Sequence,relative binding free energy [kcal/mol]
1,TATGTCACGTGAAAGG,0.4
2,TCTTCCACGTGTTGGT,0.05
3,TTTGGCACGTGACCGG,-0.08
4,TTTGACACGTGTTGTG,0.06
5,GGTTACACGTGTTATG,0.26
6,TAATTCACGTGTAGGT,0.16
7,TTGTTCACGTGAAGAA,0.42
8,ATTAGCACGTGTCGGG,-0.16
9,TTGGGCACGTGAATGC,0.13
10,GCGTCCACGTGGGTGT,-0.13
11,TTTTGCACGTGTATCG,0.21
12,TTGTTCACGTGGTATG,0.18
13,GAGAGCACGTGGTGTG,-0.05
14,GAGTACACGTGGAAGG,0.19
15,AGTTTCACGTGAATAG,0.44
16,GTCAACACGTGGTAGG,-0.09
17,GGAGTCACGTGGTTGA,0.13
18,TTAGTCACGTGGTATG,0.11
19,GTGACCACGTGAGTGT,0.35
20,CTGGTCACGTGAGGTC,0.17
21,ACGGTCACGTGTTTGT,0.08
22,GAGATCACGTGGTTTA,0.31
23,GTTGTCACGTGGTATC,0.1
24,TGTTTCACGTGTGATT,0.42
25,TGTTTCACGTGCGTGC,0.11

row,Sequence,relative binding free energy [kcal/mol]
1,GAGTCCACGTGGGGAG,-0.04
2,TTTGTCACGTGGGTGC,-0.06
3,ATGAGCACGTGTTTAG,-0.13
4,TGATGCACGTGTCGAG,0.05
5,ACGGTCACGTGGAATG,0.12
6,AGTTGCACGTGTGCTG,0.07
7,TGTGTCACGTGACTGC,0.08
8,TTTACCACGTGTCGGT,0.1
9,TGGTTCACGTGTGCAA,0.45
10,TGTGGCACGTGGTTAA,-0.16
11,AGCCGCACGTGAGGGT,0.07
12,AAAATCACGTGTATAT,0.3
13,TAATGCACGTGGTGAT,-0.07
14,ATGAGCACGTGTTTCT,0
15,TAGTTCACGTGAAGCG,0.3
16,CTTGGCACGTGTAGTG,-0.15
17,CATATCACGTGGGAGT,0.2
18,CTGAACACGTGTAGGG,0.09
19,ATGGACACGTGAGTTA,0.28
20,TAGGGCACGTGAATTG,0.15
21,AATTTCACGTGTGTGC,0.23
22,GTAAGCACGTGTTGCT,-0.12
23,GTGCGCACGTGGCATG,0.01
24,CGTACCACGTGTTGGT,-0.01
25,TACTGCACGTGTGGAT,-0.01

row,Sequence,relative binding free energy [kcal/mol]
1,TTTCGCACGTGAGTTG,0.04
2,TATCTCACGTGTAGGT,0.27
3,TGGGGCACGTGTCTGC,-0.06
4,GGGGGCACGTGATAAT,-0.02
5,GTAGGCACGTGCGTTA,-0.11
6,GGCTACACGTGTAGGG,0.12
7,TAATTCACGTGCATTG,0.29
8,AGATGCACGTGGATTT,-0.04
9,GGGGGCACGTGCGCTG,-0.39
10,GTGTGCACGTGGGCGT,-0.19
11,GATGACACGTGATATG,0.27
12,AGTTACACGTGGTGTC,0.06
13,CTCGTCACGTGTGTGG,0.14
14,CGGGTCACGTGGTAGT,-0.03
15,GAAAGCACGTGTGATG,0.09
16,GGTTACACGTGCAGAG,0.1
17,TGTTTCACGTGTTAGG,0.32
18,TTTATCACGTGTGCAT,0.15
19,TGTTCCACGTGTAAGG,0.01
20,ATCGACACGTGTGTGG,0.09
21,CATTTCACGTGGGTTC,0.2
